Data: the supplement of paper PMC10126150
Sequences with one replicate were seen in a single cluster, so their values are uncertain.

Tested on: ATP
Assay: switch fluorescence ratio, 500 uM ATP over buffer (Cy3 cluster intensity, sum of 5 cycles each) (fold (ratio)); higher = stronger signal-on switching upon ATP binding; sequences stand for … in TCGTCGGCAGCGTCAGATGTGTATAAGAGACAGTTTTTTTTTTTTTTTTTTTTTTTTT…TC
Conditions: aptamer strand: ATP DNA aptamer (quencher-CACCTGGGGGAGTATTGCGGAGGAAGG + anchor), 100 nM annealed; ATP concentration: 500 uM; one replicate
Procedure, shortened: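 Exposure to 500 uM ATP lasted 15 min at 22 °C before imaging, and a selection-buffer image was taken beforehand, for Cy3-labelled switching-strand clusters on a modified Illumina MiSeq flow-cell annealed to 100 nM quencher-labelled ATP aptamer. Five buffer/ATP cycles were run with NaOH stripping and re-annealing between them. The fluorescence ratio per cluster is summed target-cycle over summed buffer-cycle Cy3 intensity, averaged per switch-domain sequence. Clusters outside 100-1000 RFU were excluded.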

Sequence | switch fluorescence ratio
AGTGAAGAC | 1.13
TAAATAGTCA | 1.01
TTATCAGATC | 0.976
GCCCCGGCCT | 1.15
CTCTATAGTC | 1.04
AACACTGATG | 0.943
TGGCTCGA | 1.03
TGCTTCTTA | 0.997
GTTTCTCAAC | 1.01
TGGTCCCGGG | 1.02
TCTGGACTGA | 1.07
CGATGATGTC | 1.08
ACAGCTACTT | 1.18
TTCTGAGTTG | 0.959
TATCCCGCGG | 1.04
TCACGGGGTG | 1.04
ACTCTGGTGA | 1.11
GGAGGGTATT | 0.993
GAACAACCAG | 1.04
CACGCTACGA | 1.64
GACGTTCATT | 1.05
GCACTTATTG | 0.99
CCCAGTGGCA | 1.18
GTTACGCATT | 1.27
GCGTGTTTCC | 1.04
CGGTTCTAGT | 1.03

Sequence | switch fluorescence ratio
TAGTCCTACT | 1.01
GGAGGATTAC | 1.28
GCGAGTGCAA | 1.19
ATTTACGCG | 0.987
ATTCCATCAG | 1.02
AGGCGCAAAG | 1.32
GTGGCTAGG | 0.984
GAGGGTGTTT | 1.05
ATACTATGCC | 0.946
AGTTTTCGGG | 0.954
CCGTGCCAA | 3.89
TTGTAGCAAG | 1.6
AGTGCTGGTT | 0.971
GTTCTCTCAG | 1.01
AGGGGCGTTT | 0.958
TACGAAGCCT | 1.39
TTCGAGTTAA | 0.996
CGGTGAGAGA | 0.978
AGTTTTGCGG | 0.942
TGTATCATGA | 0.974
ATCTTCAAGG | 1.02
CCAGGTCCAC | 1.03
ATGGCGTAGA | 1.04
ATTTGGTCAA | 1.02
ATTACTTCTG | 0.951
TGAGCGCGTC | 1

Sequence | switch fluorescence ratio
AAACGAATGT | 0.961
ATGTCGCAGA | 1.05
AACATCCCGT | 1.01
GGTAGGAGCG | 0.972
CCCAGGGTTT | 1.62
CCAATAGTTA | 1
TGTTTGTTA | 0.98
ATTTGCGCTC | 0.975
GACTCCTTAT | 1.08
CAGGGGGATC | 1.01
GATCCTGTTG | 1.07
GAGCGTTACT | 1.48
TAAGAGTAGC | 0.977
GTAATCGGC | 0.971
GCTTTAAGTT | 0.986
CTCTGGCTGC | 2.06
CGGCGTTGAA | 0.986
GTCGAACGGT | 0.993
ACTGGGCCGA | 1.01
GGTGATGGA | 1.07
CGAGCTGGAG | 1.04
AGTTTCTGTC | 1.06
GTAGGGATTG | 0.995
GTGATATTTT | 0.973
TCGTGGGGCG | 0.939
ACGAACCCAA | 1.85

Sequence | switch fluorescence ratio
GGTCAGGAGC | 0.952
GAAATATTGG | 0.997
TATGTTTCCG | 1.04
CCATGTTACC | 1.05
CAGTATAGGG | 1.09
ATTTCAACTT | 0.997
AACAAAGGGT | 1.03
TTTCCGTTTA | 0.93
AGCCAAAGA | 0.941
CAGGACCCCA | 1.05
AGTAGGTTAA | 0.996
CAAAAAGGCC | 1.02
CAGTAGAGGC | 1.04
TGTTAATGC | 1.09
CGCACAACAA | 1.1
TACTTGTCGT | 0.964
GGTTTGTTTC | 0.993
CAATCAACGA | 1.01
TGGACTTTGT | 1.01
TACGTCTCCG | 1.08
TAACATTAGC | 1.01
TACGGACCGA | 1.13
CTATGTATGC | 1.03
GGATGGGCGG | 0.987
ATTTTGGGTA | 0.988
AGGAGTAAAG | 0.962

Sequence | switch fluorescence ratio
ATACCTGCGC | 1.42
AAGTCAGTAA | 0.951
AAGCACCCAG | 1.19
ACCGACACGT | 1.28
ACCTCTGTCT | 1.03
GGCGATGACA | 1
GACCGGGGAT | 0.992
TGATGCAAG | 1.01
TGCTAGTCGA | 1
TTGCAAGGTC | 1.07
TGCGCGTTTT | 1.03
GTAAATGT | 0.968
GTGACGCAGA | 1.84
TATTACTAGT | 1.02
AACCGGGAT | 1.02
GAAATGCAAA | 0.974
TATGTCTCAA | 1.01
GAAGTATTAC | 1.77
TTTCGGCAT | 1.06
TAAGGGAGTC | 1.03
GCTATGGGGT | 1.05
ACCGTGGTTT | 1.01
GTTGGCTGT | 0.992
GCAATGCGCG | 1.31
TATCTCGGGT | 0.986
GAGAGCCGCA | 1.05

Sequence | switch fluorescence ratio
GTCCCGGCCA | 0.952
AAAGAGCCTG | 1.15
CTGTGAGACT | 1.12
GAACTGGATC | 1.06
AGTTTACCAT | 1.01
CTGAGCGAT | 1.24
TCGTTCTCGC | 1.06
CTACTTGCGA | 1.13
CCCAGTGTAA | 1.18
AGGGGCCCTC | 1.02
ACGGCTTGAC | 1.05
CCGTTTTGTA | 1.06
GAGTTGAAGA | 0.999
GCGTCATGGG | 0.963
TTTACGTCCT | 1.68
AAGTGCTCTC | 0.974
GCTTAACATT | 0.988
CATAACGGAG | 1.04
AAACGAGATG | 1.04
TCCTCGGATG | 1.02
CACTTCTTTA | 1.03
GGGGCGTGGC | 1.02
ATTCCGGGT | 0.998
